# Laboratory results from the supplement of paper PMC12297408.
# Where a name gives a salt, the structure may show the parent alone. Out of some 1,300 compounds screened, about 40 (3%) showed activity. This is one part of the list.
# Test system: Plasmodium falciparum NF54/iGP1_RE9H ulg8 stage V gametocytes
# Experiment: gametocyte viability (luciferase signal relative to DMSO control) (% of DMSO control); higher = less gametocytocidal activity, active = 50 or less
# Settings: exposure time: 72 h
# Summary of the method: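 Gametocyte viability is reported relative to the average of DMSO vehicle wells on the same plate. The assay used day-12 stage V NF54/iGP1_RE9Hulg8 gametocytes at ~2.5% gametocytemia and 3% hematocrit, in 0.5% Albumax II medium, added to 96-well plates of compounds spotted in nanolitre volumes for final 10 µM or 1 µM, one well each. After 72 h at 37 °C, 90 µl was mixed with 10 µl D-luciferin (30 mg/ml), and luminescence was recorded with an IVIS Lumina II.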
SMILES,gametocyte viability (concentration: 1 µM),gametocyte viability (concentration: 10 µM)
COc1ccc(Cc2nccc3cc(OC)c(OC)cc23)cc1OC [Papaverine hydrochloride],inactive: 95,inactive: 84.7
CCC1(CC)C(=O)C=CNC1=O [Pyrithyldione],inactive: 84.1,inactive: 80.1
Oc1cc(Cl)ccc1Oc1ccc(Cl)cc1Cl [Triclosan],inactive: 83,inactive: 84
C[N+]1([O-])[C@@H]2C[C@@H](OC(=O)[C@H](CO)c3ccccc3)C[C@H]1[C@@H]1O[C@@H]12 (stereo partly specified) [Scopolamin-N-oxide hydrobromide],inactive: 91.5,inactive: 94.5
C[C@]12N[C@H](Cc3ccccc31)c1ccccc12 [Dizocilpine maleate],inactive: 82.2,inactive: 83.7
CCN(CC)C(C)C(=O)c1ccccc1 (stereo unspecified) [Amfepramone hydrochloride],inactive: 83.8,inactive: 83.4
O[C@@H]1CCCC[C@H]1N1CCC(c2ccccc2)CC1 [L(-)-vesamicol hydrochloride],inactive: 91.8,inactive: 84.9
COc1ccc(CCN2CCC(Nc3nc4ccccc4n3Cc3ccc(F)cc3)CC2)cc1 [Astemizole],inactive: 92.7,active: 36.4
CC(=O)O[C@H]1C[C@H](O[C@H]2[C@@H](O)C[C@H](O[C@H]3[C@@H](O)C[C@H](O[C@H]4CC[C@@]5(C)[C@H](CC[C@@H]6[C@@H]5C[C@@H](O)[C@]5(C)[C@@H](C7=CC(=O)OC7)CC[C@]65O)C4)O[C@@H]3C)O[C@@H]2C)O[C@H](C)[C@H]1O[C@@H]1O[C@H](CO)[C@@H](O)[C@H](O)[C@H]1O [Lanatoside C],inactive: 72.8,inactive: 76.2
C[C@]12CC[C@@H]3c4ccc(OC(=O)N(CCCl)CCCl)cc4CC[C@H]3[C@@H]1CC[C@@H]2O [Estramustine],inactive: 79.7,inactive: 68.6
"NCC(O)c1ccc(O)cc1 (racemic) [(+,-)-Octopamine hydrochloride]",inactive: 91.4,inactive: 86.2
CN1[C@@H]2CC[C@H]1C[C@@H](OC1c3ccccc3CCc3ccccc31)C2 [Deptropine citrate],inactive: 99.2,inactive: 86.5
"CCC1(c2ccc(N)cc2)CCC(=O)NC1=O (stereo unspecified) [Glutethimide, para-amino]",inactive: 90,inactive: 95.8
CC[C@@]1([C@@H]2O[C@@H]([C@H]3O[C@@](O)(CO)[C@H](C)C[C@@H]3C)C[C@@H]2C)CC[C@H]([C@]2(C)CC[C@]3(C[C@H](O)[C@@H](C)[C@@H]([C@@H](C)[C@@H](OC)[C@H](C)C(=O)O)O3)O2)O1 [Monensin sodium salt],active: 28.8,active: 0.676
CCN(C)C(=O)Oc1cccc([C@H](C)N(C)C)c1 [Rivastigmine],inactive: 88.1,inactive: 88.8
CN(C)C(=O)Oc1cc(OC(=O)N(C)C)cc(C(O)CNC(C)(C)C)c1 (stereo unspecified) [Bambuterol hydrochloride],inactive: 91,inactive: 94.7
C[C@]12CC[C@H](O)C[C@@H]1CC[C@@H]1[C@@H]2CC[C@]2(C)C(=O)CC[C@@H]12 [Epiandrosterone],inactive: 79.5,inactive: 84.6
CCn1cc(C(=O)O)c(=O)c2cc3c(cc21)OCO3 [Oxolinic acid],inactive: 85.4,inactive: 85.8
Cc1cccc(C)c1NC1=NCCCS1 [Xylazine],inactive: 88.8,inactive: 90.9
CN1CCN(C(=O)OC2c3nccnc3C(=O)N2c2ccc(Cl)cn2)CC1 (stereo unspecified) [Zopiclone],inactive: 92.4,inactive: 87.7
Clc1ccc(C(OCCN2CCCCC2)c2ccccc2)cc1 (stereo unspecified) [Cloperastine hydrochloride],inactive: 88,inactive: 84.4
CC(Cc1ccccc1)NCCC(c1ccccc1)c1ccccc1 (stereo unspecified) [Prenylamine lactate],inactive: 87.4,inactive: 87.5

SMILES,gametocyte viability (concentration: 1 µM),gametocyte viability (concentration: 10 µM)
CC(=O)NC1CCSC1=O (racemic) [N-Acetyl-DL-homocysteine Thiolactone],inactive: 90,inactive: 94
C[C@]12CC[C@H](O)C[C@H]1CC[C@@H]1[C@@H]2C[C@@H](O)[C@]2(C)[C@@H](C3=CC(=O)OC3)CC[C@]12O [Digoxigenin],inactive: 74.9,inactive: 72.3
NC(=O)C[S+]([O-])C(c1ccccc1)c1ccccc1 (stereo unspecified) [Modafinil],inactive: 82.7,inactive: 82.6
CC(=O)OCC(=O)[C@H]1CC[C@H]2[C@@H]3CC[C@H]4C[C@H](O)CC[C@]4(C)[C@H]3C(=O)C[C@]12C [Alfadolone acetate],inactive: 87.8,inactive: 85.2
O=P1(NCCCl)OCCCN1CCCl (stereo unspecified) [Ifosfamide],inactive: 78.9,inactive: 84.9
CC(C)c1c(CN(C)C(C)Cc2ccccc2)n(C)n(-c2ccccc2)c1=O (stereo unspecified) [Famprofazone],inactive: 89.8,inactive: 96.1
C=C(C)[C@@H]1[C@H]2OC(=O)[C@@H]1[C@]1(O)C[C@H]3O[C@]34C(=O)O[C@H]2[C@]14C [Picrotoxinin],inactive: 103,inactive: 99.2
NC(=O)CN1CCCC1=O [Piracetam],inactive: 94.3,inactive: 100
C[C@]12Cc3c[nH]nc3C[C@@H]1CC[C@@H]1[C@@H]2CC[C@@]2(C)[C@H]1CC[C@]2(C)O [Stanozolol],inactive: 95.3,inactive: 98.2
CC(C)C[C@H](CN)CC(=O)O [Pregabalin],inactive: 85.8,inactive: 85.4
CC(C)(C)NCC(O)c1ccccc1Cl (stereo unspecified) [Tulobuterol],inactive: 86.2,inactive: 89.9
"CC(=O)OCC1=C(C(=O)O)N2C(=O)[C@@H](N)[C@H]2SC1 [Cephalosporanic acid, 7-amino]",inactive: 82.3,inactive: 81.3
CO[C@]12C[C@@H](COC(=O)c3cncc(Br)c3)CN(C)[C@@H]1Cc1cn(C)c3cccc2c13 [Nicergoline],inactive: 81.4,inactive: 86.8
C[N+]12CCC(CC1)C(OC(=O)C(O)(c1ccccc1)c1ccccc1)C2 (stereo unspecified) [Clidinium bromide],inactive: 88.1,inactive: 83
C[C@@]12N[C@@H](Cc3ccccc31)c1ccccc12 [(-)-MK 801 hydrogen maleate],inactive: 89.9,inactive: 90.4
NCCc1c[nH]c2ccc(O)cc12 [Serotonin hydrochloride],inactive: 81.4,inactive: 86
CCN(C(C)=O)c1cccc(-c2ccnc3c(C#N)cnn23)c1 [Zaleplon],inactive: 89.6,inactive: 83.7
CCC(COC(=O)c1cc(OC)c(OC)c(OC)c1)(c1ccccc1)N(C)C (stereo unspecified) [Trimebutine],inactive: 83.4,inactive: 79.5
COc1cc([C@@H]2c3cc4c(cc3[C@H](O)[C@H]3COC(=O)[C@H]23)OCO4)cc(OC)c1OC [Podophyllotoxin],inactive: 97.6,inactive: 88.6
C[C@@H]1CC[C@H]2[C@@H](C)C(=O)O[C@@H]3O[C@@]4(C)CC[C@@H]1[C@]32OO4 [Artemisinin],inactive: 70.1,inactive: 63.8
CCC1(c2cccc(O)c2)CCCCN(C)C1 (stereo unspecified) [Meptazinol hydrochloride],inactive: 83,inactive: 81.4
